# From PubChem BioAssay AID504339 (National Center for Advancing Translational Sciences (NCATS), 2011)
# Screen size: about 390,000 compounds; about 17,000 (4.4%) were called active. The shares of active, inactive and inconclusive entries below differ from those in the screen. The call rests on the fitted dose curve; in most records, active means well fitted inhibition curve with a large enough effect; inconclusive means small, poorly fitted or top-dose-only effect; inactive means no such curve, though single readings can be large or run the other way. Where the call is inconclusive, the potency comes from a doubtful curve fit.
# Biological target: Lysine-specific demethylase 4A (Homo sapiens) (UniProt O75164)
# UniProt O75164, sequence (O75164 whole entry, looked up, the tested form may be a part): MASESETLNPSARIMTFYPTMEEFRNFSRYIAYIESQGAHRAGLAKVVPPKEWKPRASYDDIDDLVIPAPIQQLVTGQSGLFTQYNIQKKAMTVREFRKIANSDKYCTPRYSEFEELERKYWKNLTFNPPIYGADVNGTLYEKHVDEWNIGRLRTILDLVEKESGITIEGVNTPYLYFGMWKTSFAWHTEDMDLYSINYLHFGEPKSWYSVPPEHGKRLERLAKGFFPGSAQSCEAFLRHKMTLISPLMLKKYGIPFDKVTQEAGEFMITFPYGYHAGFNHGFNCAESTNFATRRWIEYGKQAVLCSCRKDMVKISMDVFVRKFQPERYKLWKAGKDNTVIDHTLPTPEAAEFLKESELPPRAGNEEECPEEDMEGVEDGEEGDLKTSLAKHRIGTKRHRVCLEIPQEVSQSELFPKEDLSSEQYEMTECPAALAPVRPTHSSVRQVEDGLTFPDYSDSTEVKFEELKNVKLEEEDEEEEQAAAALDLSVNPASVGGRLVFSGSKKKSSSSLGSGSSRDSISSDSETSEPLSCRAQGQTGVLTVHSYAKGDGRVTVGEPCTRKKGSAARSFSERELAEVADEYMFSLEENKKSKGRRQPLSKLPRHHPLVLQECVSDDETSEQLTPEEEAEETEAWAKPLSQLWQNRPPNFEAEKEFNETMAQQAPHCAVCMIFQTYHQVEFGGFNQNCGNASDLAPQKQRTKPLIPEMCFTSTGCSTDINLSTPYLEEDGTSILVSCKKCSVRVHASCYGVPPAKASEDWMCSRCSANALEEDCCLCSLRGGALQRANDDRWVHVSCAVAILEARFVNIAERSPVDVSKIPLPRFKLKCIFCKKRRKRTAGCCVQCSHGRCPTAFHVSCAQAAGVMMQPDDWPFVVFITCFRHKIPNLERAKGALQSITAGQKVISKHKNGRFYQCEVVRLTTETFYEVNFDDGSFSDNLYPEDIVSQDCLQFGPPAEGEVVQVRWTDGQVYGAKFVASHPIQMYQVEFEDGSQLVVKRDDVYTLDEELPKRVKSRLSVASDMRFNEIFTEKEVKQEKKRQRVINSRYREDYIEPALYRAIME
# Experiment: qHTS Assay for Inhibitors of JMJD2A-Tudor Domain; further: nearly all actives have a fitted effect of over 50% in size
# Details: AlphaScreen JMJD2A-Tudor / H3K4me3 peptide binding; activity change, negative = inhibition: at 114 µM (top of the series)
# On the % scale 0 is the no-effect control and ±100 the full control effect; potency means the concentration at half of the fitted maximal effect; tags describe the fitted curve by direction and shape.
SMILES,Potency,"activity change, negative = inhibition"
COc1ccc(-c2nc(-c3ccc4c(c3)OCO4)[nH]c2-c2ccc(OC)cc2)cc1,active: 12.6 µM,–
COc1ccccc1C1CCN(Cc2ccc3ccccc3c2)CC1,"inconclusive: 31.6 µM [inhibitor, partial curve]",–
CCOP(=O)(c1ccccc1)c1nc(-c2ccccc2C)oc1N1CCCCC1 (stereo not drawn),"inconclusive: 56.2 µM [inhibitor, partial curve]",–
COc1cccc(CN(C)C(=O)c2ccc(N3CCCC3)c([N+](=O)[O-])c2)c1,active: 44.7 µM,–
O=C(CN1CCN(Cc2ccccc2)CC1)Nc1ccc(F)c(F)c1,active: 6.31 µM,–
O=S(=O)(Nc1nc2c(s1)CCCC2)c1ccc2ccccc2c1,"inconclusive: 50.1 µM [inhibitor, partial curve]",–
O=c1cc(-c2ccc(O)c(-c3c(O)cc(O)c4c(=O)cc(-c5ccc(O)cc5)oc34)c2)oc2cc(O)cc(O)c12,"inconclusive: 44.7 µM [inhibitor, partial curve]",–
CCCn1c2c(c(=N)c3c1CCC3)CCCC2,"inconclusive: 50.1 µM [inhibitor, single point]",–
COc1ccc(C)cc1NC(=O)COC(=O)CCC(=O)c1cccs1,–,inactive: -10.1%
Cc1cccc(NC(=O)c2nnn(CC(=O)Nc3ccc(C(C)C)cc3)c2N)c1C,–,inactive: 1.33%
O=C(N/N=C/c1cc(Br)c(O)c([N+](=O)[O-])c1)C(O)(c1ccccc1)c1ccccc1,"inconclusive: 56.2 µM [inhibitor, partial curve]",–
O=C(COc1ccccc1)Nc1ccc(N2CCN(C(=O)c3cccs3)CC2)cc1,"inconclusive: 20 µM [inhibitor, full curve]",–
COc1ccc(/C=N/NC(=O)c2ccc(N(C)S(=O)(=O)c3ccccc3)cc2)c(OC)c1,–,inactive: -16.6%
c1ccc(Nc2c(-c3c[nH]c4ccccc34)nc3ccccn23)cc1,"inconclusive: 11.2 µM [inhibitor, single point]",–
Cc1ccc(C)c(NC(=S)NNc2ccc(F)cc2F)c1,active: 31.6 µM,–
O=C1c2ccccc2S(=O)(=O)c2cc(C(=O)N3CCN(c4ccccc4)CC3)ccc21,"inconclusive: 35.5 µM [inhibitor, partial curve]",–
N#CC1=C(S)N=C(N)C(c2nc(-c3ccccc3)cs2)C12CCCCC2 (stereo not drawn),"inconclusive: 3.98 µM [inhibitor, full curve, poor fit]",–
Cc1ccc(C2c3[nH]c4ccccc4c3CCN2C(=O)c2cccc(C)c2)cc1 (stereo not drawn),"inconclusive: 50.1 µM [inhibitor, partial curve]",–
Cc1ccc(/C=N/n2c(-c3ccc(Cl)cc3)n[nH]c2=S)o1,"inconclusive: 50.1 µM [inhibitor, partial curve]",–
COc1ccccc1-c1nc(S(=O)(=O)c2ccc(Cl)cc2)c(N(C)C)o1,"inconclusive: 89.1 µM [inhibitor, single point]",–
Cn1c(=O)c2c(nc(NCc3ccco3)n2Cc2ccc(Cl)cc2Cl)n(C)c1=O,"inconclusive: 35.5 µM [inhibitor, partial curve]",–
CC(C(=O)NC1C=CS(=O)(=O)C1)N1C(=O)/C(=C/c2cccc(Cl)c2)SC1=S (stereo not drawn),"inconclusive: 44.7 µM [inhibitor, partial curve]",–

SMILES,Potency,"activity change, negative = inhibition"
CCOC(=O)C1=C(C)N=c2s/c(=C3/C(=O)Nc4ccccc43)c(=O)n2C1c1ccc(C)cc1 (stereo not drawn),"inconclusive: 3.98 µM [inhibitor, full curve, poor fit]",–
Cc1ccc(-c2nnc(Nc3cccc(O)c3)c3ccccc23)cc1S(=O)(=O)N1CCOCC1,"inconclusive: 44.7 µM [inhibitor, partial curve]",–
Nc1ccc(C(=O)N/N=C/c2cn(Cc3ccccc3F)c3ccccc23)cc1,active: 89.1 µM,–
COc1ccc(N2CCN(C(=O)c3ccc(CS(=O)Cc4ccc(Cl)cc4)o3)CC2)cc1 (stereo not drawn),"inconclusive: 56.2 µM [inhibitor, partial curve, poor fit]",–
CCC(c1nnnn1Cc1ccco1)N(Cc1ccccc1OC)Cc1cc2cc(C)ccc2[nH]c1=O (stereo not drawn),"inconclusive: 56.2 µM [inhibitor, partial curve]",–
CC1=CC(C)(C)N2C(=O)C(=O)c3cc(OC(=O)c4ccco4)cc1c32,active: 35.5 µM,–
CC(N=Cc1nc(-c2ccccc2)oc1O)c1ccccc1 (stereo not drawn),active: 79.4 µM,–
CCN1CC2=C(OC(N)=C(C#N)C2c2cccs2)/C(=C\c2cccs2)C1 (stereo not drawn),"inconclusive: 56.2 µM [inhibitor, partial curve]",–
CCC(=O)Nc1ccc2c(c1)ncn2-c1ccc(OC)cc1,–,inactive: -5.76%
COc1ccc(-c2n[nH]c(=S)o2)c(OC)c1,active: 79.4 µM,–
COc1ccc(OCc2n[nH]c(=S)n2Cc2ccco2)cc1,–,inconclusive: -92.8% [inhibitor]
O=C(NNS(=O)(=O)c1ccc(Br)cc1)c1csnn1,"inconclusive: 89.1 µM [inhibitor, single point]",–
CCC(C)(C)n1nnnc1C(c1ccc(OC)cc1)N1CCN(C(=O)c2ccco2)CC1 (stereo not drawn),"inconclusive: 70.8 µM [inhibitor, single point]",–
O=C(O)/C=C/C(=O)NCCc1cccc(Cl)c1,–,inactive: 2.87%
COc1ccc(C2Nc3ccccc3C(=O)N2Cc2ccc(C(C)(C)C)cc2)cc1COc1ccc(NC(C)=O)cc1 (stereo not drawn),"inconclusive: 44.7 µM [inhibitor, partial curve, poor fit]",–
CCOC(=O)C1CCN(C(=O)CCc2nnc3ccc(N4CCC(C)CC4)nn23)CC1,"inconclusive: 15.8 µM [inhibitor, single point]",–
O=C(CSc1nnnn1-c1ccccc1)N1CCc2ccccc21,–,inactive: -22.1%
O=[N+]([O-])c1ccc(NCc2ccccc2N2CCC(CO)CC2)nc1,"inconclusive: 28.2 µM [inhibitor, partial curve]",–
Cc1ccc([N+](=O)[O-])cc1S(=O)(=O)NCCc1c(C)[nH]c2ccccc12,"inconclusive: 70.8 µM [inhibitor, single point]",–
Cc1nnc(SCC(=O)NC(=O)Nc2ccc3c(c2)OCCO3)n1N,–,inactive: -11.9%
CCOC(=O)c1ccc(N2C(=O)c3n[nH]c(-c4ccco4)c3C2c2ccccc2OC)cc1 (stereo not drawn),"inconclusive: 12.6 µM [inhibitor, full curve]",–
